This is one part of the list.
The sequences below were run on PfHDP1 homeodomain (GST-tagged) (assay: gcPBM binding intensity (ln(normalized median fluorescence intensity)); higher = stronger DNA binding).
How it was run: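 Binding intensity is the highest Masliner-normalised natural-log median intensity over replicate spots in either probe orientation. To obtain it, GST-tagged P. falciparum DNA-binding domains made in E. coli were incubated for 1 h on an Agilent 4 × 180k array of primer-extended double-stranded 36-bp intergenic genomic probes plus negative controls. Detection used Alexa488 anti-GST antibody with scanning at 488 nm.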

| Sequence | gcPBM binding intensity (ln) |
| --- | --- |
| TTGTTAATATGATAAAAGAGGAATATTCTCTTCCTA [GTGCAC_negctrl_site659] | 5.92 |
| AATATAAAAAAAAAAAAAAAAAAAAAAAAAAAGACA [CACACA_negctrl_site983] | 5.97 |
| AAATATTATGTACGCACACACATTTTTAATATATAA [CACACA_site3851] | 7.2 |
| TTATTTACAACTTCAAATTATGTGTAATACTACTAT [CACACA_negctrl_site741] | 6.34 |
| TAAAAAAAAACTCATGCACACAATATTATGAAAAAG [CACACA_site665] | 8.31 |
| TATTTATAAAAAGATTGTACATTTTTTATTATTGTA [XGTACX_site6016] | 6.34 |
| ATAAAACAACAAAGAAAATGAAAAAGTAAAAACATA [CACACA_negctrl_site596] | 6.63 |
| AAAAAAAAAAAAAAAACACACATATATCTATAATAT [CACACA_site6665] | 6.67 |
| CATTATTTATTTTAATGTACTTATTTTTAAATTGGT [XGTACX_site8038] | 6.11 |
| TATACAAAATATTTTACACACACATATATATACATA [CACACA_site2616] | 7.09 |
| AGTGCATACATGAATTGTACTTTAAAATAAATTCTA [XGTACX_site8156] | 8.88 |
| TCCTATAATAACGTCACACATTAAATTTAATAAATT [CACACA_site4506] | 6.68 |
| TTACGAATTACATATTGTACATATGCACAATTTTAA [XGTACX_site6802] | 8.91 |
| AATTAAAATACAAATGTATGCATGTCTCATATAGAA [TGCATGCA_site822] | 6.25 |
| TACATAATTTAAAATTTTATAAGTTGTAATTCGTTT [XGTACX_negctrl_site308] | 6.3 |
| ATATCTAAATATATTACACACAGATATCTTCCTATA [CACACA_site3701] | 6.8 |
| AACAAATAAAGCTATGACATGTTAAAATTGTTTCAC [XGTACX_negctrl_site67] | 6.34 |
| ATTCGTATGAGCATAACACACAATATCGATATTTCT [CACACA_site4165] | 7.45 |
| ATAAAGGAATTTTATACACACAACATATAAATATAT [CACACA_site7365] | 6.62 |

| Sequence | gcPBM binding intensity (ln) |
| --- | --- |
| AGAGAAAAATATTTGGACAAAAATAATATAATATAT [CACACA_negctrl_site656] | 6.55 |
| CATACACCCATACATACACACATACATACACCCATA [CACACA_site5124] | 7.08 |
| TCTTTTCAATTATCCTATATTCTTTTATTTTTAATT [GTGCAC_negctrl_site326] | 6.51 |
| GATAAAGTAAAAATATGTACATATATATTTTAAGTT [XGTACX_site6439] | 6.49 |
| AGAAATTATAAATACCTACACACTTATCAAAATAAA [CACACA_site2264] | 6.41 |
| TAAGACATGATATATACACACCTTGTTTTAATTTTC [CACACA_site5282] | 6.33 |
| TATATCTGTAAATGCACACATATGTGGATATACTTA [CACACA_site5013] | 10 |
| TATAAATATAAATACACACACATATAGATTATAGAT [CACACA_site6429] | 6.8 |
| TCTAATAATATATACACACACATATATATTTATATA [CACACA_site2032] | 6.68 |
| TGCTACATTCTATGTACACACATATACATATATATA [CACACA_site893] | 6.49 |
| GTTCATTCATTTTAATGTACAAATTTAACTTTTTCT [XGTACX_site680] | 6.06 |
| ATTTATTTATCTAGCTATTCACCATTTTCTTTTGTT [CACACA_negctrl_site1259] | 6.56 |
| AAAGTATACAATGACGCATGCATATATATATACATA [TGCATGCA_site429] | 6.49 |
| ACTTTTTTGAACAACGTGCACGTATTCATAACAAAA | 10.6 |
| ATTAAAAATTATATTTTATAAAAATTAAAAGAAATA [CACACA_negctrl_site65] | 6.47 |
| ATCAGATATATATATTGTACATTTATATATAAATCA [XGTACX_site1960] | 6.47 |
| ATAGGATGTTTGCACTGTACCAAAAAATGAGCTGCA [XGTACX_site2825] | 9.36 |
| ACCCTATTTATATATACACACACATATATAAATAAA [CACACA_site8980] | 7.27 |
| CTAATTCGTATATGCTGTACCTTTTTCTTACGACTA [XGTACX_site4392] | 6.69 |

| Sequence | gcPBM binding intensity (ln) |
| --- | --- |
| ATATGGAATGATCATAGTACATAATTTAAAATTTTA [XGTACX_site3568] | 6.33 |
| AACATATATAATATTTGTACTTATATACAAAATATG [XGTACX_site7502] | 6.18 |
| TTTTTTAAAGCCTGTTCATCATCCTTACCTATCAAC [GTGCAC_negctrl_site452] | 6.4 |
| TATTTTTTCTTAAACACACACATATAGATTTATAAC [CACACA_site7354] | 6.79 |
| TGTCCTTATTGGCACACACACATATAAGAAATTTAA [CACACA_site5724] | 6.79 |
| CTTAAAAACAAAAATGCACACATAATAAGCATATGT [CACACA_site9149] | 9.58 |
| TGAAATTAGATATATACACACATATAGATTTATATG [CACACA_site7619] | 6.31 |
| ATTAAACTCATTAAGAGTACAGATAACATTAAAGTA [XGTACX_site8697] | 6.25 |
| AAAATTGTGAAAGGGAAGATGATCAAATTGTTAAGG [CACACA_negctrl_site1492] | 6.99 |
| TATAATGGTAAAAACACACAAATATGAAGATGTTAA [CACACA_site6479] | 6.16 |
| GATGGGCAAATTTACTGTACTTTTATAATATTTTTT [XGTACX_site4830] | 6.69 |
| AAAAAAAATTATATTTGTACGCATTAAAAAATCTAA [XGTACX_site1616] | 6.35 |
| GTACCTATAAATATTACACACATTTTCATTTTTAAC [CACACA_site7022] | 7.13 |
| TTTCATTTTAGAAGTACACACAAAAAATAAAATAAT [CACACA_site2141] | 6.68 |
| CTATAATAGAAGTGTACACACATATTTATGTCTGTA [CACACA_site7462] | 6.4 |
| TTTTCTTTATTATAATGTACTCACAAATAAATATAA [XGTACX_site7298] | 6.65 |
| ATAAATACGATTAATTAGGTTTGTATAAATTAAATT [GTGCAC_negctrl_site635] | 6.14 |
| AATATCACATTCCACGGTACACACTAAAAGAAAAAT [XGTACX_site7653] | 6.9 |

Reference: the supplement of paper PMC11417369
